Test results: article PMC4336329 (PLoS ONE, 2015)
Hit rate of the full screen: of about 310,000 compounds, about 14,000 (4.5%) showed an effect of 50% or more. The effect is printed as a negative number. The list shows a part of the results.

Biological target: human ether-à-go-go-related gene (hERG) potassium channel (human, UniProt Q12809)
Test: primary screen, population patch clamp on CHO cells stably expressing hERG
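Also: peak tail current of the secondary pulse compared with the same well before compound.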

Sequence of human ether-à-go-go-related gene (hERG) potassium channel (Q12809 whole entry, looked up): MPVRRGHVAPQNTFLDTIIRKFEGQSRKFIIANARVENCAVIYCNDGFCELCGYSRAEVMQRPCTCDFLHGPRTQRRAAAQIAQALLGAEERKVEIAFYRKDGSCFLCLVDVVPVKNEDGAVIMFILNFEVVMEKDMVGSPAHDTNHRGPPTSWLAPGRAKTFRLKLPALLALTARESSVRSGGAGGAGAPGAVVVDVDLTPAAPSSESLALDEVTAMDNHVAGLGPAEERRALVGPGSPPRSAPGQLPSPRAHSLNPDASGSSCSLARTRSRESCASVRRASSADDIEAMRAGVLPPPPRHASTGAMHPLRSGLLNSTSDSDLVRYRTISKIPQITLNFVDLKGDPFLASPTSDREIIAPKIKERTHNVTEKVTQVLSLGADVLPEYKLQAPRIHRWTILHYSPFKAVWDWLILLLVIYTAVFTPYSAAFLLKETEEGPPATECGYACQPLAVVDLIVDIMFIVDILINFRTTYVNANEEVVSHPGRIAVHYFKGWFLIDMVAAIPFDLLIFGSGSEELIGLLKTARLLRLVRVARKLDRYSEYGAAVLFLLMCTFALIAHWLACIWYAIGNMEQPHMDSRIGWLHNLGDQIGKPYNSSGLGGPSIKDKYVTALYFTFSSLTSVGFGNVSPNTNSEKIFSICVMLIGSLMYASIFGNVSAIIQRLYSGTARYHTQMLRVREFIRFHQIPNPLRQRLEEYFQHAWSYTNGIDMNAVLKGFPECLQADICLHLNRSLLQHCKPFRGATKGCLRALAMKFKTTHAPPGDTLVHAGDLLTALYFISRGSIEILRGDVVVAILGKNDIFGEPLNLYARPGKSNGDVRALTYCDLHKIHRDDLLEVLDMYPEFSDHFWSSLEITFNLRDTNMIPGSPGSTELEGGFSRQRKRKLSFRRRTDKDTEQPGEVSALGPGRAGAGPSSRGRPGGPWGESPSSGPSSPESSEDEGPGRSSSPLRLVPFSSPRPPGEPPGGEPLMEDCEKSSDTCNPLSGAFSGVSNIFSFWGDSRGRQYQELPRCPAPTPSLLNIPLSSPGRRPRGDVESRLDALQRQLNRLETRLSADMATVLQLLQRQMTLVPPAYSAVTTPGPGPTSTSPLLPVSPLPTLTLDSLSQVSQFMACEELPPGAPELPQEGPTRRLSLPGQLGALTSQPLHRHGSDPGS

Row | SMILES | hERG current change (%, negative = inhibition) at 10uM [%]
1 | CCN(CC(O)COc1ccc(OCC(O)CN(CC)C2CCCCC2)cc1)C1CCCCC1 (centres unmarked) | 22.2
2 | Cc1c(/C(O)=C2/C(=O)C(=O)N(Cc3cccnc3)C2c2ccccn2)cnn1-c1ccccc1 (centres unmarked) | 8.54
3 | C=CCN(c1ccc(F)cc1)S(=O)(=O)c1cc(C(=O)OCC(=O)N(C)C2CCS(=O)(=O)C2)ccc1Cl (centres unmarked) | -31.3
4 | Cn1c(=O)cc(NCc2ccccc2)[nH]c1=O | 15
5 | O=C(NNc1ccccc1Br)C(O)(c1cccc(C(F)(F)F)c1)c1cccc(C(F)(F)F)c1 | 3.28
6 | COC(=O)C(CC(C(=O)OC)C(=O)OC)C(=O)OC | 8.79
7 | CN(C)c1ccc(N2C(=NC(=O)C3CCCO3)SC3CS(=O)(=O)CC32)cc1 (centres unmarked) | 11.1
8 | COc1cnn(-c2cccc(Cl)c2)c(=O)c1Cl | 13.5
9 | O=C(Nc1cccc(F)c1)c1cc(S(=O)(=O)N2CCOCC2)ccc1N1CCCC1 | -34.2
10 | CC12CCC(C(=O)NCc3ccc4c(c3)OCO4)(CC1=O)C2(C)C (centres unmarked) | -8.73
11 | CCOC(=O)N1CCN(C2CC(=O)N(c3ccccc3)C2=O)CC1 (centres unmarked) | 13.5
12 | COc1ccc(/C=C2/NC(=O)CNC2=O)cc1 | 20.7
13 | CSc1nccc(NC(=O)c2ccc(C(C)(C)C)cc2)n1 | -2.01
14 | Cc1ccc(Nc2ncc3c(n2)CC(C)CC3=O)c(C)c1 (centres unmarked) | 0.876
15 | COc1ccc(C2CC(c3cccs3)=NN2C(=O)CSc2nc3ccccc3o2)cc1 (centres unmarked) | 15.5
16 | CN1CCN(C(=O)CCc2ccc(S(=O)(=O)NC3CCCCC3)cc2)CC1 | 14.3
17 | CCc1cccc(NS(=O)(=O)c2ccc3c(c2)NC(=O)CC(=O)N3)c1 | 31.8
18 | COc1cc(C(=O)N/N=C/c2coc3ccc(Cl)cc3c2=O)ccc1O | 14.2
19 | CCOc1ccc(-n2nnnc2SCC(=O)NC2CCCC2)cc1 | 3.2
20 | O=C(NCC1CCCO1)c1onc(CSc2ccc(F)c(F)c2)c1C(=O)O (centres unmarked) | 1.63
21 | CCOC(=O)C(CC)n1cnc2c(nnn2-c2ccccc2)c1=O (centres unmarked) | -14.2
22 | CC(=O)Nc1ccc(S(=O)(=O)N2CCN(C(=O)N3CCCCCC3)CC2)cc1 | 1.64

Row | SMILES | hERG current change (%, negative = inhibition) at 10uM [%]
23 | Cc1c(CN2CCC(n3nccc3NC(=O)CCc3ccccc3)CC2)cnn1C | 12.6
24 | CCOC(=O)CSc1nnc(-c2cccs2)n1-c1ccccc1 | -42.8
25 | CN(C(=O)c1ccc(S(=O)(=O)N2CCCC2)cc1)C1CCCCC1 | 4.61
26 | CSc1nnc(-c2ccc(O)cc2)n1C | -8.16
27 | CCC(=O)N1CCc2cc(S(=O)(=O)CCC(=O)N3CCN(c4ccccc4)CC3)ccc21 | 3.15
28 | CN1CCN(CC(=O)Nc2ccc(Cl)cc2Cl)CC1 | -69.4
29 | C=CCn1c(SCC(C)=O)nc2scc(-c3ccco3)c2c1=O | 16.5
30 | Cc1cc(C)cc(Nc2c(F)c(F)c(F)c(F)c2C(=O)O)c1 | 20.9
31 | O=C(C1CCCN(S(=O)(=O)c2cc(Cl)ccc2Cl)C1)N1CCCC1 (centres unmarked) | -19.5
32 | O=C(CSc1nc(C2CC2)nc2ccccc12)Nc1ccccc1Cl | 17.9
33 | CSc1ccccc1NC(=O)COC(=O)CCc1ccccc1 | 18.3
34 | Cn1c(SCC(=O)NC2(C#N)CCCCC2)nnc1-c1cccnc1 | 8.7
35 | Cc1ccc(NC(=O)CN(C)C(=O)COc2cccc3cccnc23)cc1 | -12.4
36 | COc1ccc(C(=O)NC(=S)N2CCCCC2c2cccnc2)cc1OC (centres unmarked) | -16.7
37 | O=C(CN1C(=O)c2cccc3cccc(c23)C1=O)N1CCOCC1 | 3.27
38 | CN(C)CCCN(C(=O)CCc1ccccc1)c1nc2ccc(Br)cc2s1.Cl | -3.24
39 | COc1ccc(NC(=O)c2cc3n(n2)C(C(F)(F)F)CC(c2ccc(OC)cc2)N3)cc1 (centres unmarked) | 12.4
40 | CC[C@@]1(c2ccccc2C)C(=O)N(C(=O)OC)N1C(=O)OC | 20.3
41 | O=[N+]([O-])c1nn(-c2ccc3c(c2)OCCO3)n(O)c1=Nc1ccc(Cl)cc1 | 5.22
42 | O=C1CSC(=O)N1CC(O)COc1ccc(Cl)cc1 (centres unmarked) | -6.72
43 | Cc1cccc(NC(=O)C2CC(=O)N/C(=N/N=C/c3ccco3)S2)c1 (centres unmarked) | 1.47
44 | O=C(Nc1ccc(F)c(F)c1)c1ccc(F)c(S(=O)(=O)N2CCC3(CC2)OCCO3)c1 | -1.01

Row | SMILES | hERG current change (%, negative = inhibition) at 10uM [%]
45 | COc1ccc(NC(C)=O)cc1S(=O)(=O)N1CCc2ccccc21 | -45.2
46 | Cc1ccc(C)c2[nH]c(=O)c(CCNC(=O)Cc3cccs3)cc12 | -0.656
47 | Cc1ccc(S(=O)(=O)N(C)c2ccc(OC(=O)CN3C(=O)NC4(CCCC4)C3=O)cc2)cc1C | 9.26
48 | O=C1C(=O)N(Cc2ccco2)C(c2cccc(Cl)c2)/C1=C(\O)c1ccc2c(c1)OCCO2 (centres unmarked) | 15.8
49 | Cc1c(N=Cc2ccncc2)c(=O)n(-c2ccccc2)n1C | -9.42
50 | CCN(Cc1nc(-c2ccccc2)no1)C(=O)c1ccc2c(c1)OCO2 | -4.48
51 | O=C(COC(=O)c1cc(NS(=O)(=O)c2cccs2)ccc1O)Nc1ccccc1 | 12.1
52 | CCCCN(C)C(=O)c1oc2ccc(S(=O)(=O)N3CCCCCC3)cc2c1C | -15.9
53 | C=CCn1c(SCC(=O)NC(=O)NCc2ccco2)nc2sc(C)c(C)c2c1=O | 6.5
54 | Cc1cc(=O)n2[nH]c(NCc3ccccc3F)nc2n1 | 15.2
55 | COc1ccc(N2CC(O)=C(c3nc(-c4ccccc4)cs3)C2=N)cc1 | 12.3
56 | CC(C)(C)c1ccccc1OCC(=O)Nc1ncn[nH]1 | 21.5
57 | Cc1onc(-c2c(Cl)cccc2Cl)c1C(=O)NC1C(=O)N2C1SC(C)(C)C2C(=O)[O-].[Na+] (centres unmarked) | 5.57
58 | COc1ccc(CN(CCC(c2ccccc2)C2CCOC(C)(C)C2)C(C)=O)cc1 (centres unmarked) | -11.6
59 | O=C(COc1ncnc2sccc12)Nc1ccc2c(c1)OCCO2 | -1.64
60 | O=C(O)CCc1ccc(-c2ccc(Cl)cc2)n1CCC(=O)O | 5.2
61 | CC1CCCC(NC(=O)CCNC(=O)c2ccc(Cl)cc2)C1C (centres unmarked) | -10.3
62 | CCOCCCN(C)C1CCN(C(=O)c2oc3ccccc3c2NC(=O)c2cccc([N+](=O)[O-])c2)CC1 | -79.7
63 | CCCCn1c(N)c(N(CCOC)C(=O)COc2c(C)cccc2C)c(=O)[nH]c1=O | -0.678
64 | Cn1c(COc2ccc3ccccc3c2)nnc1SCC(=O)OC1CCCCC1 | -2.58
65 | CN(C)c1ccc(NC(=O)Cn2c(=O)n(Cc3ccccc3)c(=O)c3ccccc32)cc1 | 5.49
66 | O=C(c1ccco1)N1CCN(C(=O)c2cc3sccc3n2Cc2ccccc2)CC1 | -55.6

Row | SMILES | hERG current change (%, negative = inhibition) at 10uM [%]
67 | C=C(C)COc1ccc(-c2nc(N)nc(C)c2Oc2ccccc2OC)c(O)c1 | 17.4
68 | Cc1ccc(N(C)S(=O)(=O)c2csc(C(N)=O)c2)cc1C | -14.8
69 | O=[N+]([O-])c1ccc(N2CCN(c3ccccc3F)CC2)nc1 | 13.4
70 | CCC1C(C#N)=C(N)OC2=C1C(=O)CC(C)(C)C2 (centres unmarked) | 14.2
71 | COc1ccc(NC(=O)CCC(=O)Nc2nnc(C3CCCCC3)s2)c(OC)c1 | 23.2
72 | COc1ccccc1N1CCN(S(=O)(=O)c2ccc3c(c2)NC(=O)C(C)C(=O)N3)CC1 (centres unmarked) | -7.18
73 | CCOC(=O)Cc1cc(=O)[nH]c(/N=C(/NC(=O)c2ccccc2)Nc2ccccc2C(F)(F)F)n1 | 4.39
74 | COCCCNC(=O)c1oc2ccc(S(=O)(=O)N3CCOCC3)cc2c1C | -3.32
75 | Cc1ccc(C(=O)NCC(=O)N2CCN(c3ccccc3)CC2)cc1 | -6.26
76 | Cc1c([N+](=O)[O-])cc(S(=O)(=O)Nc2ccncc2)cc1[N+](=O)[O-] | 34.3
77 | Fc1ccc(Cn2nnnc2CN2CCN(C3CCCCC3)CC2)cc1 | -45.4
78 | CC(Oc1ccccc1F)C(=O)NNC(=O)CCNC(=O)c1ccco1 (centres unmarked) | -0.266
79 | CCc1nc(C)cn1S(=O)(=O)c1cc(OC)c(C)cc1C | 2.46
80 | CN(C(=O)c1cc2ccccc2cc1O)C1CCCCC1 | 0.457
81 | COc1ccc(C(=O)Nc2cccc(S(=O)(=O)NC3=NCCCCC3)c2)cc1 | -10.9
82 | O=C(COC(=O)C1CCN(c2ccc(C(F)(F)F)cn2)CC1)NCCc1ccccc1 | -12.8
83 | COCCNC(=O)C1CC(=O)N(c2ccc(OC)cc2)C1c1ccc(OC)cc1 (centres unmarked) | 9.03
84 | FC(F)C(F)(F)C1=CC(c2cccs2)=NCCN1 | -25.5
85 | NC(=O)c1ccsc1NC(=O)COC(=O)c1nc(Cl)ccc1Cl | -0.505
86 | Cc1cc(Oc2ccc([N+](=O)[O-])cc2)nc(N2CCOCC2)n1 | 13.5
